# Among all 310,000 compounds or so, about 14,000 (4.5%) showed an effect of 50% or more. The effect is printed as a negative number. The list shows a part of the results.
# Target: human ether-à-go-go-related gene (hERG) potassium channel (human, UniProt Q12809)
# Test: primary screen, population patch clamp on CHO cells stably expressing hERG
# 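Also: peak tail current of the secondary pulse compared with the same well before compound.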
# human ether-à-go-go-related gene (hERG) potassium channel, sequence (Q12809 whole entry, looked up): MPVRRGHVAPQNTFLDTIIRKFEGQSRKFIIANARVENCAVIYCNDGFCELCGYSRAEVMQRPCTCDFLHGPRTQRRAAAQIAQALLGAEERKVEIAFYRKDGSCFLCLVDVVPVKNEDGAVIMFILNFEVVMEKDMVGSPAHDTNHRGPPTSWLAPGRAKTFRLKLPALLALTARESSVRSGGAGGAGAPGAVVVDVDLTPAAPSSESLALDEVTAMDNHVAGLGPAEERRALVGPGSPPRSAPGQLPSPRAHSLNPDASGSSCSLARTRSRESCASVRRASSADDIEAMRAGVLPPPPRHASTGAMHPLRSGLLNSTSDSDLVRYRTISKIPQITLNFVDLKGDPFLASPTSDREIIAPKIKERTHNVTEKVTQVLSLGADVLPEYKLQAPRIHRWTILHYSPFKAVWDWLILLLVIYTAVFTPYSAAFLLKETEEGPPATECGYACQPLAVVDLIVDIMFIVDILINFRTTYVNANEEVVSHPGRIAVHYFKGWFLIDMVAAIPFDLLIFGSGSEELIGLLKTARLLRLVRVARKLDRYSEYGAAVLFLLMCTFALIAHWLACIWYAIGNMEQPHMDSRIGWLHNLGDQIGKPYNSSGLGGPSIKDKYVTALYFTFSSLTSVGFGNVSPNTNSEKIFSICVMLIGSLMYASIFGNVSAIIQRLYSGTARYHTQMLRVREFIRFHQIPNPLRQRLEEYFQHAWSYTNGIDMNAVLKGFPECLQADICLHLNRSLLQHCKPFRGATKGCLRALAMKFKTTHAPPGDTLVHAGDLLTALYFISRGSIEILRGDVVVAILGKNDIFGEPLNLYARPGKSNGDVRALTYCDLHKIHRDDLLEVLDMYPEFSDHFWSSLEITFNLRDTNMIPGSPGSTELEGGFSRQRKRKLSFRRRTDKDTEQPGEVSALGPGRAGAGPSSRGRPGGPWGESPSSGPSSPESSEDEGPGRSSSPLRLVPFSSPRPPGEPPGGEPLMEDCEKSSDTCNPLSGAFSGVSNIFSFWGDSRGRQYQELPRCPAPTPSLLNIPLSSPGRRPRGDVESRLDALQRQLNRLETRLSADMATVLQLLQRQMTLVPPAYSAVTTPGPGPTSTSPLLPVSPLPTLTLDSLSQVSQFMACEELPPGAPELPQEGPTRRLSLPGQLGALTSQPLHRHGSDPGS
row,Structure (SMILES),"hERG current change (%, negative = inhibition) at 10uM"
1,O=C(NC(=S)Nc1ccccc1N1CCOCC1)c1ccc(Br)cc1,8.98%
2,COCCNC(=S)NNC(=O)c1cc(C2CC2)nc2ccccc12,21.9%
3,Cc1ccc(CN(Cc2ccco2)C(=S)Nc2ccccc2C)cc1,18.7%
4,CNC(=O)NC(=O)C(C)OC(=O)c1c2c(nc3ccccc13)/C(=C/c1cccs1)CC2 (stereo not shown),12.8%
5,COc1cc(CN2CCCN(C)CC2)c([N+](=O)[O-])cc1OC,-8.47%
6,Cn1c(C(O)c2ccccc2F)nc(Cl)c1Cl (stereo not shown),2.97%
7,CC(=O)NNS(=O)(=O)c1ccccc1[N+](=O)[O-],4.19%
8,C/C=C/Cn1c(SC)nc2c1c(=O)[nH]c(=O)n2C,-10.1%
9,Cn1nc(NC(=O)C(F)(F)F)c2ncc(-c3ccc(Cl)cc3)nc21,18.5%
10,O=C(NCC(c1cccs1)N1CCOCC1)c1cccnc1 (stereo not shown),-5.14%
11,COc1ccc(CC(=O)N2CC(C)CC(C)C2)cc1OC (stereo not shown),5.21%
12,Cc1nc2c(ccc3nc(NC(=O)c4ccc5c(c4)OCCO5)sc32)s1,-74.3%
13,N#CC(C#N)=C1C(=O)N(CCN2CCOCC2)c2ccccc21,10.4%
14,CC(=O)Nc1ccc(S(=O)(=O)N(C#N)c2nc(N(C)C)nc(N(C)C)n2)cc1,10.4%
15,COc1cc2c3c(c1OC)C1(C=CC(=NNC(N)=O)C=C1)CC3N(C(C)=O)CC2 (stereo not shown),-3.79%
16,COc1ccc(NC(=S)NC2CCCCCC2)c(OC)c1,4.68%
17,Cc1occc1C(=O)NNC(=O)COc1ccc(Br)cc1Br,2.94%
18,CCC(CC)C(=O)Oc1c(Sc2ccccc2[N+](=O)[O-])c(C)nn1C(C)(C)C,13%
19,O=[N+]([O-])c1ccc(/C=C/c2ccncc2)cc1,-25.7%
20,C=CCC1(CC=C)CCCN1C(=O)c1cc(COc2ccccc2SC)on1,-1.98%
21,CCOC(=O)/C(C#N)=C\c1c(C)cc(C)c(COC(C)=O)c1C,9.76%
22,CC(CC(=O)O)CC(=O)Nc1ccccc1C(=O)O (stereo not shown),-28.3%

row,Structure (SMILES),"hERG current change (%, negative = inhibition) at 10uM"
1,ClC(Cl)(Cl)c1ccccc1,10.1%
2,COc1ccccc1N(Cc1ccccc1)S(=O)(=O)c1cccc(C(=O)NC2CC(C)(C)NC(C)(C)C2)c1,-73.4%
3,CC1=CC(=O)C(C(C)C)=C/C1=N/OS(=O)(=O)c1ccccc1,6.9%
4,CSc1nc2n(n1)C(c1cc(Br)ccc1F)C(C(=O)N(C)C)=C(C)N2 (stereo not shown),-6.95%
5,CCc1csc(CCNC(=O)C2CCC(=O)N(Cc3ccccc3F)C2)n1 (stereo not shown),-3.32%
6,CCCCOC(=O)C1=C(C)Nc2ncnn2C1c1cccc(OC)c1 (stereo not shown),-6.92%
7,COC(=O)C(CCSC)NC(=O)C(NC(=O)C1CCC(C)CC1)C(C)C (stereo not shown),3.33%
8,COCC(=O)Nc1cc(C(=O)Nc2ccccc2)ccc1Cl,-5.75%
9,O=S(=O)(c1ccc2c(c1)CCCN2)N1CCCCC1,-11.9%
10,CC(Sc1nncs1)C(=O)Nc1ccc(Cl)cn1 (stereo not shown),0.601%
11,Cc1nnc(SCc2nnc(-c3cccs3)o2)s1,1.39%
12,Cc1ccc2c(CSc3nnc4ccccn34)cc(=O)oc2c1C,-16%
13,COc1ccc(C2Nc3ccccc3C(=O)N2c2ccc(C)cc2)cc1Cn1nc(C)c([N+](=O)[O-])c1C (stereo not shown),2.25%
14,COc1c(Cl)cc(-c2noc(C)c2C(=O)NCCc2ccc(C)cc2)cc1Cl,-0.305%
15,CC1CN(S(=O)(=O)c2cccc(C(=O)OCC(=O)Nc3ccc4c(c3)OCO4)c2)CC(C)O1 (stereo not shown),-8.93%
16,CC(OC(=O)Cc1n[nH]c(=O)c2ccccc12)C(=O)Nc1ccc(F)cc1Cl (stereo not shown),2.32%
17,CN(Cc1ccc(C(C)(C)C)cc1)C(=O)c1ccc2c(=O)n3c(nc2c1)CCC3,-47.8%
18,c1ccc2c3n(nc2c1)CCCCO3,8.27%
19,CCCc1nc(SCc2ccccc2Cl)n[nH]1,10.7%
20,COC(=O)Cc1c(C)c2ccc(OC3CCCCC3=O)cc2oc1=O (stereo not shown),6.98%
21,COC(C(=O)Nc1ccnn1C1CCN(Cc2cnn(C)c2)CC1)c1ccccc1 (stereo not shown),6%
22,NC(=O)[C@H]1CC2(CC(c3cccc(NC(=O)CC(c4ccccc4)c4ccccc4)c3)=NO2)CN1C(=O)c1ccccc1C(=O)c1ccccc1 (stereo partly shown),4.03%

row,Structure (SMILES),"hERG current change (%, negative = inhibition) at 10uM"
1,Cc1cc(C)nc(SC(C(=O)O)c2ccccc2)n1 (stereo not shown),17.9%
2,CCOC(=O)Cn1cc(C#N)c2ccccc21,15.1%
3,COc1ccc(-c2nnc(C)c3nocc23)cc1,9.28%
4,Cc1cccn2c(=O)c3cc(C(=O)NC4CCCC4)c(=N)n(CC4CCCO4)c3nc12 (stereo not shown),-74.4%
5,Cc1cccnc1NC(=O)c1ccc2c(c1)OCO2,1.4%
6,Cn1c(=O)[nH]c(Nc2ccccc2)c([N+](=O)[O-])c1=O,15.4%
7,COC(=O)c1ccc(C23CC4(C2)[C@H](CN(Cc2ccc(-c5ccccc5)cc2)[C@@H]4c2ccccc2)C3c2ccc(C(F)(F)F)cc2)cc1 (stereo partly shown),1.21%
8,COc1ccc(-c2csc(C)n2)cc1,-0.124%
9,Cc1ccccc1N1CCN(C2CCCN(C(=O)c3ocnc3C)C2)CC1 (stereo not shown),-16.9%
10,COc1cccc2oc3ccc(C#Cc4ccccn4)cc3c(=O)c12,13.6%
11,Cc1ccc(C)c(C(=O)NC(C)c2ccc(-n3ccnc3)cc2)c1 (stereo not shown),-62.4%
12,O=C(NC(NC1CCS(=O)(=O)C1)C(Cl)(Cl)Cl)c1cccc(Cl)c1 (stereo not shown),-7.37%
13,CCc1cccc(CC)c1NC(=O)CSc1nc2ccc(N3C(=O)C4C(C3=O)[C@H]3C=C[C@@H]4C3)cc2s1 (stereo partly shown),3.84%
14,O=C(O)c1cccc(OS(=O)(=O)c2cc(Br)ccc2Br)c1,-9.65%
15,COc1ccc(C(=O)COC(=O)c2cc(S(=O)(=O)N3CCCCC3)ccc2N2CCOCC2)c(OC)c1,-12.7%
16,COc1ccc(Nc2oc(COc3ccc(Cl)cc3)nc2C#N)cc1,11.1%
17,CN1CCN(NC(=O)c2cccc3ccccc23)CC1,4.95%
18,COc1ccc(C2CC(c3cccs3)=NN2S(C)(=O)=O)cc1 (stereo not shown),-2.74%
19,NNC(=O)CCc1nc2ccc(O)cc2[nH]1,18.1%
20,O=C(COC(=O)[C@@H]1CCCN1C(=O)c1cccs1)NCCc1ccccc1,-7.49%
21,N/C(CSc1ccc(Cl)cc1)=N\S(=O)(=O)c1ccc(Cl)cc1,5.61%
22,Cc1ccc(S(=O)(=O)NCC(=O)OCC(=O)c2ccc(Br)s2)cc1,-52.7%

row,Structure (SMILES),"hERG current change (%, negative = inhibition) at 10uM"
1,COCc1cc(C)n(CC(=O)NCc2ccccc2)c(=O)c1C#N,18%
2,COc1ccc(C(=O)N2CCSC2=S)cc1OC,-9.03%
3,CCOC(=O)CSc1nnnn1-c1cc(OC)c(Cl)cc1OC,-0.709%
4,CN(C)c1oc(/C=C/c2ccccc2)nc1C#N,8.93%
5,O=C(CSc1nccn1-c1cccc(Cl)c1)NO,0.366%
6,C=CCc1c(C)nc(-c2ccccc2)nc1Nc1ccc(O)cc1,-18.7%
7,CC(Oc1ccccc1)C(=O)N1CCN(c2ccc(N3CCOCC3)nn2)CC1 (stereo not shown),-3.79%
8,CN1CCN(S(=O)(=O)c2ccc(NC(=O)c3ccc(F)cc3Cl)cc2)CC1,3.16%
9,CCOc1ccccc1C(=O)N/N=C/c1coc2ccc(C)cc2c1=O,5.93%
10,COc1ccccc1N1CCN(C(=O)CSc2nc(-c3ccco3)cc(C(F)(F)F)n2)CC1,-18.4%
11,CCOc1ccc(N=Cc2c(O)n(CCc3ccc(OC)c(OC)c3)c(=O)[nH]c2=O)cc1,11.1%
12,COCCC(=O)N1CCC(Oc2ccc(C(=O)NCCc3ccccn3)cc2)CC1,24.2%
13,CCC(Oc1ccccc1)C(=O)N(Cc1ccccc1)c1ccccn1 (stereo not shown),-6.96%
14,COc1ccccc1CNC(=O)c1oc2ccc(S(=O)(=O)N3CCCC3)cc2c1C,-4.46%
15,O=C(CCNS(=O)(=O)c1cccc(Cl)c1)OCC(=O)N1CCN(C(=O)c2ccco2)CC1,-43.5%
16,Cc1ccc(NC(=O)c2oc3ccc(S(=O)(=O)N4CCOCC4)cc3c2C)cc1C,-9.23%
17,CSc1c(-c2ccccn2)c(N)nn1C(=O)C1CCC1,1.65%
18,COc1ccc(C2C3=C(CC(C)(C)CC3=O)Oc3ncn(Cc4ccco4)c(=N)c32)cc1 (stereo not shown),-68.3%
19,CC(=O)C1=NN(c2ccc(Cl)cc2)C(c2ccc3c(c2)OCO3)N(C(C)=O)N1C (stereo not shown),-1.98%
20,COc1cccc(N2CCN(c3c4c(nc5ncnn35)CCC4)CC2)c1,-30.6%
21,O=C(NC1CC1)C1=C[C@@H](c2ccc(Br)cc2)C[C@@H](OCCCCO)O1,-15.5%
22,Fc1ccc(NC(=S)N/N=C/c2cccc(Br)c2)c(F)c1,3.9%
